The target of this assay is T1, HCoV-OC43 nucleocapsid (N) protein, 2X-StrepTag tagged (HCoV-OC43, UniProt P33469 1-448).
T1 sequence: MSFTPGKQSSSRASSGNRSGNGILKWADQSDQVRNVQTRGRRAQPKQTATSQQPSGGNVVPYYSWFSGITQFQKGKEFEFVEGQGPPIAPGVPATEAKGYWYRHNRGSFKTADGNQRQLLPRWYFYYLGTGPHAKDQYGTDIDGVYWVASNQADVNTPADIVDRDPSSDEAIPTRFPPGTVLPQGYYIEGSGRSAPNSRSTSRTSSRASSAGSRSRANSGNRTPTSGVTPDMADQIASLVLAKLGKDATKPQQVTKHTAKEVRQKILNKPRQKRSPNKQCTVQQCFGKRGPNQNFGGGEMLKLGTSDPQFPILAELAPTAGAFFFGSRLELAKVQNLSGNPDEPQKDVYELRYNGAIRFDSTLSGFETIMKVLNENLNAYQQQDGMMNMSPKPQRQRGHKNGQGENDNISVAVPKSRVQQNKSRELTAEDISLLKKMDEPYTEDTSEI
The experiment in a line: BLI.

The term Kd denotes a measure of binding affinity in units of concentration. A high value points to weaker binding. As a reminder, the koff is a measure of how fast the partners let go of each other. Read a high koff as fast dissociation. Broadly, the kon is the rate constant with which the complex forms.

B1: CCL20 (ligand)
chain: not shown
On to B1, for which the Kd was determined as 1800 nM, the koff was 0.017 s⁻¹ and the kon was found to be 18000 M⁻¹ s⁻¹.

These data come from PMC10334784 (Proceedings of the National Academy of Sciences of the …, 2023).
